Where “and” joins values, the source holds several entries; their conditions need not be identical. Equal entries are not always repeated.
Columns and labels:
Sprague-Dawley rats [1] = conditions: rat, in vivo
Sprague-Dawley rats [2] = conditions: 12 mg/kg IV

## CC(=O)O[C@@]12CO[C@@H]1C[C@H](O)[C@@]1(C)C(=O)[C@H](OC(=O)C3CC3)C3=C(C)[C@@H](OC(=O)[C@H](O)[C@@H](NC(=O)OC4CCC4)c4cccs4)C[C@@](O)([C@@H](OC(=O)c4ccccc4)C12)C3(C)C (stereo partly shown) [Compound 18365]
Sprague-Dawley rats [1]
  Day 4 ALT, points toward toxicity score: 20 (key: 0: ALT elevation ≧2 × cont; ALT elevation ≧1.5 × cont; 10: ALT elevation ≧1.25 × cont; 20: ALT elevation <1.25 × cont)
  Day 4 AST, points toward toxicity score: 20 (key: 0: AST elevation ≧2 × cont.; AST elevation ≧1.5 × cont; 10: AST elevation ≧1.25 × cont; 20: AST elevation <1.25 × cont)
  Day 4 BUN, points toward toxicity score: 20 (key: 0: BUN elevation ≧2 × cont; BUN elevation ≧1.5 × cont; 10: BUN elevation ≧1.25 × cont; 20: BUN elevation <1.25 × cont)
  Day 4 PLT, points toward toxicity score: 20 (key: 0: Platelets decrease ≧75%; Platelets decrease ≧50%; 10: Platelets decrease ≧25%; 20: Platelets decrease <25%)
  Neuro Tox: 0 (key: 0: no degen axons; 1-3 degen axons; 2: 4-10 degen axons; 3: 11-50 degen axons; 4: 50+ degen axons)
  Neuro Tox, points toward toxicity score: 0 (key: Neurotoxicity N (0); −10: Neurotoxicity Y (1-4))
  Score AVE: 8.5

## CCC(=O)O[C@H]1C(=O)[C@@]2(C)C([C@H](OC(=O)c3ccccc3)[C@]3(O)C[C@H](OC(=O)[C@H](O)[C@@H](NC(=O)OC4CCC4)c4cccs4)C(C)=C1C3(C)C)[C@]1(OC(C)=O)CO[C@@H]1C[C@@H]2O (stereo partly shown) [Compound 19244]
Sprague-Dawley rats [2]; average of 3 rats
  rat toxicity Score, AVE (scale 0 to 10, higher = safer): 7.7
Sprague-Dawley rats [2]; individual rats
  Day 1 BW: 231 and 230 and 227
  Day 4 ALT: 26 and 19 and 28
  Day 4 AST: 204 and 158 and 119
  Day 4 BUN: 18 and 12 (2×)
  Day 4 PLT: 1220 and 1005 and 792
  Day 4 WBC: 3.87 and 3.52 and 4.92
  Day 8 BW: 219 and 197 and 208
  Day 10 BW: 227 and 203 and 221
  Day 10 PLT: 994 and 1137 and 1370
  Day 10 WBC: 16.4 and 15 and 11.7
  Score (Total/13, scale 0 to 10): 7.7
  Total (toxicity score points, maximum 130): 100
Sprague-Dawley rats [1]
  Day 4 ALT, points toward toxicity score: 20 (key: 0: ALT elevation ≧2 × cont; ALT elevation ≧1.5 × cont; 10: ALT elevation ≧1.25 × cont; 20: ALT elevation <1.25 × cont)
  Day 4 AST, points toward toxicity score: 20 (key: 0: AST elevation ≧2 × cont.; AST elevation ≧1.5 × cont; 10: AST elevation ≧1.25 × cont; 20: AST elevation <1.25 × cont)
  Day 4 BUN, points toward toxicity score: 20 (key: 0: BUN elevation ≧2 × cont; BUN elevation ≧1.5 × cont; 10: BUN elevation ≧1.25 × cont; 20: BUN elevation <1.25 × cont)
  Day 4 PLT, points toward toxicity score: 10 (key: 0: Platelets decrease ≧75%; Platelets decrease ≧50%; 10: Platelets decrease ≧25%; 20: Platelets decrease <25%)
  Score AVE: 7.1

## CCC(=O)O[C@H]1C(=O)[C@@]2(C)C([C@H](OC(=O)c3ccccc3)[C@]3(O)C[C@H](OC(=O)[C@H](O)[C@@H](NC(=O)OC4CCCC4)c4cccs4)C(C)=C1C3(C)C)[C@]1(OC(C)=O)CO[C@@H]1C[C@@H]2O (stereo partly shown) [Compound 18926]
Sprague-Dawley rats [1]
  Day 4 ALT, points toward toxicity score: 20 (key: 0: ALT elevation ≧2 × cont; ALT elevation ≧1.5 × cont; 10: ALT elevation ≧1.25 × cont; 20: ALT elevation <1.25 × cont)
  Day 4 AST, points toward toxicity score: 20 (key: 0: AST elevation ≧2 × cont.; AST elevation ≧1.5 × cont; 10: AST elevation ≧1.25 × cont; 20: AST elevation <1.25 × cont)
  Day 4 BUN, points toward toxicity score: 20 (key: 0: BUN elevation ≧2 × cont; BUN elevation ≧1.5 × cont; 10: BUN elevation ≧1.25 × cont; 20: BUN elevation <1.25 × cont)
  Day 4 PLT, points toward toxicity score: 20 (key: 0: Platelets decrease ≧75%; Platelets decrease ≧50%; 10: Platelets decrease ≧25%; 20: Platelets decrease <25%)
  Day 8 BW, points toward toxicity score: 20 (key: Body Weight Loss ≧20%; Body Weight Loss ≧15%; Body Weight Loss ≧10%; 20: Body Weight Loss <10%)
  Score AVE: 8.5
